Data reported in US10299477B2 (priority 2015, dated 2019).

How the values were obtained:
[1] = system: Phytophthora infestans; format: in vivo; settings: evaluated 5-10 days after inoculation; for Test F (control value class, late blight on tomato): 250 ppm, sprayed 2.5 ml/pot before inoculation; for Test F (control value class): Late blight on tomato, 250 ppm spray, 2.5 ml/pot
[2] = system: Magnaporthe grisea; format: in vivo; settings: for Test A (control value class, blast on rice): in vivo; for Test A (control value class): Blast on rice, control value=100{1-(n/3)}

| Structure (SMILES) | Test F (control value class, late blight on tomato) [1] | Test A (control value class, blast on rice) [2] | Test F (control value class) [1] | Test A (control value class) [2] |
| --- | --- | --- | --- | --- |
| CCn1c(-c2c(F)cccc2F)c(-c2cc(OC)ccc2Cl)ccc1=O [Compound 582] | L (L shows 50% or less of control values) | H (H shows more than 50% of control values) |  |  |
| CCN1C(=O)CCC(c2cc(F)cc(F)c2Cl)=C1c1c(F)cc(F)cc1F [Compound 583] | L (L shows 50% or less of control values) | H (H shows more than 50% of control values) |  |  |
| CCn1c(-c2c(F)cc(F)cc2F)c(-c2cc(F)cc(F)c2Cl)ccc1=O [Compound 584] | L (L shows 50% or less of control values) | H (H shows more than 50% of control values) |  |  |
| CCn1c(-c2c(F)cc(F)cc2F)c(-c2cc(F)cc(F)c2Cl)cc(Cl)c1=O [Compound 585] | L (L shows 50% or less of control values) | H (H shows more than 50% of control values) |  |  |
| Cn1c(-c2c(F)cc(F)cc2F)c(-c2cc(F)cc(F)c2Cl)ccc1=O [Compound 586] | L (L shows 50% or less of control values) | H (H shows more than 50% of control values) |  |  |
| Cn1c(-c2c(F)cc(F)cc2F)c(-c2cc(F)cc(F)c2Cl)cc(Cl)c1=O [Compound 587] | L (L shows 50% or less of control values) | H (H shows more than 50% of control values) |  |  |
| CCn1c(-c2c(F)cc(OC)cc2F)c(-c2cccc(F)c2F)ccc1=O [Compound 588] | L (L shows 50% or less of control values) | H (H shows more than 50% of control values) |  |  |
| CCn1c(-c2c(F)cc(OC)cc2F)c(-c2cccc(F)c2F)cc(Br)c1=O [Compound 589] | L (L shows 50% or less of control values) | H (H shows more than 50% of control values) |  |  |
| CCn1c(-c2c(F)cc(OC)cc2F)c(-c2cccc(F)c2F)cc(Cl)c1=O [Compound 590] | L (L shows 50% or less of control values) | H (H shows more than 50% of control values) |  |  |
| CCOc1cc(F)c(-c2c(-c3ccccc3F)ccc(=O)n2C)c(F)c1 [Compound 591] | L (L shows 50% or less of control values) | H (H shows more than 50% of control values) |  |  |
| CCn1c(-c2c(F)cc(F)cc2F)c(-c2ccc(F)cc2Cl)cc(F)c1=O [Compound 592] | L (L shows 50% or less of control values) | H (H shows more than 50% of control values) |  |  |
| CCn1c(-c2c(F)cc(OC)cc2F)c(-c2ccc(F)cc2Cl)cc(Cl)c1=O [Compound 593] | L (L shows 50% or less of control values) | H (H shows more than 50% of control values) |  |  |
| CCn1c(-c2c(F)cc(F)cc2F)c(-c2ccc(F)cc2Cl)cc(C)c1=O [Compound 594] | L (L shows 50% or less of control values) | H (H shows more than 50% of control values) |  |  |
| CCOc1cc(F)c(-c2c(-c3ccc(F)cc3Cl)cc(Cl)c(=O)n2CC)c(F)c1 [Compound 595] | L (L shows 50% or less of control values) | H (H shows more than 50% of control values) |  |  |
| Cn1c(-c2c(F)cc(F)cc2F)c(-c2ccc(F)cc2Cl)cc(Cl)c1=O [Compound 596] | L (L shows 50% or less of control values) | H (H shows more than 50% of control values) |  |  |
| Cn1c(-c2c(F)cc(F)cc2F)c(-c2ccc(F)cc2Cl)cc(Br)c1=O [Compound 597] | L (L shows 50% or less of control values) | H (H shows more than 50% of control values) |  |  |
| CCOc1cc(F)c(-c2c(-c3ccccc3F)cc(Cl)c(=O)n2C)c(F)c1 [Compound 598] | L (L shows 50% or less of control values) | H (H shows more than 50% of control values) |  |  |
| CCn1c(-c2c(F)cc(OC)cc2F)c(-c2ccc(F)cc2Cl)cc(C)c1=O [Compound 599] | L (L shows 50% or less of control values) | H (H shows more than 50% of control values) |  |  |
| Cn1c(-c2c(F)cc(F)cc2F)c(-c2cc(F)cc(F)c2)ccc1=O [Compound 800] |  |  | L (L shows 50% or less of control values) | H (H shows more than 50% of control values) |
| CCn1c(-c2c(F)cccc2F)c(-c2cc(OCC#N)ccc2Cl)cc(C)c1=O [Compound 801] |  |  | L (L shows 50% or less of control values) | H (H shows more than 50% of control values) |
| CCOc1ccc(Cl)c(-c2cc(C)c(=O)n(CC)c2-c2c(F)cccc2F)c1 [Compound 802] |  |  | L (L shows 50% or less of control values) | H (H shows more than 50% of control values) |

| Structure (SMILES) | Test F (control value class, late blight on tomato) [1] | Test A (control value class, blast on rice) [2] | Test F (control value class) [1] | Test A (control value class) [2] |
| --- | --- | --- | --- | --- |
| COc1cc(F)c(-c2c(-c3cc(F)cc(F)c3)ccc(=O)n2C)c(F)c1 [Compound 803] |  |  | H (H shows more than 50% of control values) | H (H shows more than 50% of control values) |
| Cn1c(-c2c(F)cc(F)cc2F)c(-c2cc(F)cc(F)c2)cc(Cl)c1=O [Compound 804] |  |  | L (L shows 50% or less of control values) | H (H shows more than 50% of control values) |
| Cn1c(-c2c(F)cc(F)cc2F)c(-c2cc(F)cc(F)c2)cc(Br)c1=O [Compound 805] |  |  | L (L shows 50% or less of control values) | H (H shows more than 50% of control values) |
| CCn1c(-c2c(F)cc(F)cc2F)c(-c2cccc(O)c2Cl)cc(Cl)c1=O [Compound 806] |  |  | H (H shows more than 50% of control values) | H (H shows more than 50% of control values) |
| COc1cc(F)c(-c2c(-c3cc(F)cc(F)c3)cc(Cl)c(=O)n2C)c(F)c1 [Compound 807] |  |  | L (L shows 50% or less of control values) | H (H shows more than 50% of control values) |
| COc1cc(F)c(-c2c(-c3cc(F)cc(F)c3)cc(Br)c(=O)n2C)c(F)c1 [Compound 808] |  |  | L (L shows 50% or less of control values) | H (H shows more than 50% of control values) |
| CCOc1cccc(-c2cc(Cl)c(=O)n(CC)c2-c2c(F)cc(F)cc2F)c1Cl [Compound 809] |  |  | L (L shows 50% or less of control values) | H (H shows more than 50% of control values) |
| CCn1c(-c2c(F)cc(F)cc2F)c(-c2cccc(OCC#N)c2Cl)cc(Cl)c1=O [Compound 810] |  |  | L (L shows 50% or less of control values) | H (H shows more than 50% of control values) |
| CCn1c(-c2c(F)cc(F)cc2F)c(-c2cccc(OCOC)c2Cl)cc(Cl)c1=O [Compound 811] |  |  | L (L shows 50% or less of control values) | H (H shows more than 50% of control values) |
| CCn1c(-c2c(F)cc(F)cc2F)c(-c2cc(F)cc(F)c2Br)ccc1=O [Compound 812] |  |  | L (L shows 50% or less of control values) | H (H shows more than 50% of control values) |
| CCn1c(-c2c(F)cc(F)cc2F)c(-c2cc(F)cc(F)c2Br)cc(Cl)c1=O [Compound 813] |  |  | L (L shows 50% or less of control values) | H (H shows more than 50% of control values) |
| CCn1c(-c2c(F)cc(F)cc2F)c(-c2cc(F)cc(F)c2Br)cc(Br)c1=O [Compound 814] |  |  | L (L shows 50% or less of control values) | H (H shows more than 50% of control values) |
| Cn1c(-c2c(F)cc(F)cc2F)c(-c2cc(F)cc(F)c2Br)ccc1=O [Compound 815] |  |  | L (L shows 50% or less of control values) | H (H shows more than 50% of control values) |
| Cn1c(-c2c(F)cc(F)cc2F)c(-c2cc(F)cc(F)c2Br)cc(Cl)c1=O [Compound 816] |  |  | L (L shows 50% or less of control values) | H (H shows more than 50% of control values) |
| Cn1c(-c2c(F)cc(F)cc2F)c(-c2cc(F)cc(F)c2Br)cc(Br)c1=O [Compound 817] |  |  | L (L shows 50% or less of control values) | H (H shows more than 50% of control values) |
| CCn1c(-c2c(F)cc(OC)cc2F)c(-c2cc(F)cc(F)c2Br)ccc1=O [Compound 818] |  |  | L (L shows 50% or less of control values) | H (H shows more than 50% of control values) |
| CCn1c(-c2c(F)cc(OC)cc2F)c(-c2cc(F)cc(F)c2Br)cc(Cl)c1=O [Compound 819] |  |  | H (H shows more than 50% of control values) | H (H shows more than 50% of control values) |
| CCn1c(-c2c(F)cc(OC)cc2F)c(-c2cc(F)cc(F)c2Br)cc(Br)c1=O [Compound 820] |  |  | L (L shows 50% or less of control values) | H (H shows more than 50% of control values) |
| CCn1c(-c2c(F)cc(F)cc2F)c(-c2ccccc2Cl)cc(I)c1=O [Compound 821] |  |  | L (L shows 50% or less of control values) | H (H shows more than 50% of control values) |
| CCn1c(-c2c(F)cc(OC)cc2F)c(-c2ccccc2Cl)cc(I)c1=O [Compound 822] |  |  | L (L shows 50% or less of control values) | H (H shows more than 50% of control values) |
